{"source": "PubChem BioAssay (NCI)", "note": "Where “and” joins values, the source holds several entries; their conditions need not be identical. Equal values may be shown once.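 These data come from cells grown in 96-well plates and exposed to compound for 48 hours at five concentrations. GI50 = concentration required for 50% inhibition of growth. TGI: total growth inhibition.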"}
{"system": "NCI-H322M lung", "assay": "growth of human tumour cells (NCI), 48 h", "units": {"GI50": "µM"}}
{"smiles": "Cc1nc(-c2nc(C)c(C(=O)/C=C/c3ccc(N(C)C)cc3)s2)sc1C(=O)/C=C/c1ccc(N(C)C)cc1", "TGI": "> 100 µM"}
{"smiles": "C=C(C)/C=C/C(O)[C@](C)(O)[C@H]1[C@H](O)C[C@@]2(C)[C@@H]3CCc4c(cc(OC5OC(CO)C(O)C(O)C5O)c(O)c4C)C3(C)C(=O)C[C@]12C", "note": "(stereo not given in full)", "TGI": "> 100 µM"}
{"smiles": "c1ccc(N=C2SC(c3ccccc3)(c3ccccc3)c3ccccc32)cc1", "TGI": "> 100 µM"}
{"smiles": "Cc1cn(CCOCCOC(=O)NC(CCCN=C(N)N)C(=O)O)c(=O)[nH]c1=O", "note": "(stereo not given)", "TGI": "> 100 µM"}
{"smiles": "CC[C@]12C=CCN3CC[C@]4(C(=C(C(=O)OC)C1)Nc1cc(OC)c(OC(C)=O)cc14)[C@@H]32", "GI50": 1.3, "TGI": "18.8 µM"}
{"smiles": "COc1cc(C2c3cc4c(cc3OC(N3CCCCC3)C2C)OCO4)cc(OC)c1OC", "note": "(stereo not given)", "TGI": "> 100 µM"}
{"smiles": "C[C@]12CCC3c4ccc(O)cc4CC[C@H]3C1CC(=O)N(CCN1CCCC1)C2=O", "note": "(stereo not given in full)", "TGI": "> 10 µM"}
{"smiles": "C/C(=N\\N(C)C)C(CN1CCCCC1)C(c1ccccc1)c1c(O)c2ccccc2oc1=O", "note": "(stereo not given)", "TGI": "> 100 µM"}
{"smiles": "Cc1cccc(NC(=O)c2sc3nc4c(cc3c2N)CCCC4)c1", "GI50": "> 100", "TGI": "> 100 µM"}
{"smiles": "CCNC(=S)NNC(=O)c1nsc2ccccc12", "TGI": "> 100 µM"}
{"smiles": "CC12CCC(C(=O)n3c1nc1ccccc13)C(C)(C)O2", "note": "(stereo not given)", "TGI": "> 100 µM"}
{"smiles": "COc1cc2c3c(n(CCCN=[N+]=[N-])c(=O)c2cc1OC)-c1ccc(C#N)cc1C3=O", "GI50": "> 100", "TGI": "> 100 µM"}
{"smiles": "CC(=O)OCC1OC(OC2=C(CC=C(C)C)C(=O)c3ccccc3C2=O)C(OC(C)=O)C(OC(C)=O)C1OC(C)=O", "note": "(stereo not given)", "GI50": 11.6, "TGI": "24.5 µM"}
{"smiles": "Cc1ccc(N(C)S(=O)(=O)c2ccc([N+](=O)[O-])cc2)cc1", "TGI": "> 100 µM"}
{"smiles": "NC(CSC(=O)c1ccccc1)C(=O)O", "note": "(stereo not given)", "TGI": "> 100 µM"}
{"smiles": "COc1nc(-c2cn(S(=O)(=O)c3ccc(C)cc3)c3ccc(Br)cc23)cc(C(F)(F)F)c1C#N", "TGI": "> 100 µM"}
{"smiles": "COc1ccc(Nc2nc3cc(C(F)(F)F)ccc3nc2C(=O)O)cc1OC", "TGI": "> 100 µM"}
{"smiles": "C[C@]12CCc3nonc3C1CC[C@@H]1C2CC[C@]2(C)C(=O)CCC12", "note": "(stereo not given in full)", "TGI": "> 100 µM"}
{"smiles": "CCOC(=O)c1cc(C(=O)c2ccc(Cl)cc2)n2ccc(-c3cc[n+](CC(=O)c4ccc(OC)cc4)cc3)cc12", "GI50": 1.66, "TGI": "3.2 µM"}
{"smiles": "CC(C)(C)c1ccc(O)c(C[N+](C)(C)C)c1", "TGI": "> 100 µM"}
{"smiles": "Cn1c(=O)c2ccccc2c2nc3ccccc3nc21", "TGI": "> 100 µM"}
{"smiles": "C=CCNC(=O)/C=C\\C(=O)O", "TGI": "> 100 µM"}
{"smiles": "O=C1CNc2cc(N3CCN(c4ccccc4)CC3)ccc2N1", "TGI": "> 100 µM"}
{"smiles": "CN(O)C(=O)c1ccccc1", "TGI": "> 100 µM"}
{"smiles": "CN(C)CCCNC(=O)CCNC(=O)c1cc(NC(=O)c2cc(NC(=O)c3cc(NC(=O)CCCNC(=O)c4cc(NC(=O)c5cc(NC(=O)c6nccn6C)cn5C)cn4C)cn3C)cn2C)cn1C", "TGI": "> 100 µM"}
{"smiles": "O=C(CC(=O)Nc1ccccc1Cl)NNC(c1cc(N=Nc2ccc(Br)cc2)ccc1O)P(O)O", "note": "(stereo not given)", "TGI": "7.96 µM"}
{"smiles": "O=C1Nc2c(Cl)cc(Cl)cc2/C1=N/N=C/c1ccccc1O", "TGI": "48.8 µM"}
{"smiles": "O=C1CCCn2c(nc3ccccc32)N1", "TGI": "> 100 µM"}
{"smiles": "COc1cc(CC(C)C(C)Cc2ccc(O)c(OC)c2)ccc1O", "note": "(stereo not given)", "GI50": 14.7, "TGI": "50 µM and 28.2 µM"}
{"smiles": "O=C1/C(=C\\c2ccc(Br)cc2)CN(C(=O)c2ccccc2F)C/C1=C\\c1ccc(Br)cc1", "GI50": 7, "TGI": "38.3 µM"}
{"smiles": "O=c1c2ccccc2nc(/C=C(\\O)c2ccccc2)n1-c1ccccc1Cl", "TGI": "> 100 µM"}
{"smiles": "COC(=O)c1c2c(c[n+]([O-])c1C)C(=O)C=C(NCc1ccccc1)C2=O", "GI50": 0.209, "TGI": "0.506 µM"}
{"smiles": "O=c1nc2sc3ccc4ccccc4c3n2nc1-c1ccccc1", "TGI": "> 100 µM"}
{"smiles": "COc1ccc2c(CCC(c3ccccc3)c3ccccc3)c3[n+](cc2c1OC)CCc1cc2c(cc1-3)OCO2", "GI50": 2.78, "TGI": "12 µM"}
{"smiles": "N#CCCC1(CCC#N)CCc2ccccc2C1=O", "TGI": "> 100 µM"}
{"smiles": "COc1ccc(-c2[nH]c(=O)n(C3OC(CO)C(O)C(O)C3O)c(=O)c2C#N)cc1", "note": "(stereo not given)", "TGI": "> 100 µM"}
{"smiles": "COc1ccc(/C=C/C(=O)C(C)C)cc1", "TGI": "> 100 µM"}
{"smiles": "CC1CC(c2ccc(Cl)cc2)=Nc2ccccc2S1", "note": "(stereo not given)", "TGI": "> 100 µM"}
{"smiles": "COc1cccc2c1C(=O)c1c(O)c3c(c(O)c1C2=O)CC(O)(C(O)CO)CC3OC1CC2C(OC3COCC(C#N)N32)C(C)O1", "note": "(stereo not given)", "TGI": "< 0.01 µM"}
{"smiles": "O=[N+]([O-])c1ccc(N=Nc2c(O)ccc3cc(S(=O)(=O)O)cc(S(=O)(=O)O)c23)cc1", "TGI": "> 100 µM"}
{"smiles": "O=c1[nH]c2cc(C(F)(F)F)ccc2nc1CBr", "TGI": "30.4 µM"}
{"smiles": "COc1ccc(-c2cc(=O)c3c(O)c(OC)c(O)c(OC)c3o2)cc1OC", "TGI": "> 100 µM"}
{"smiles": "COc1cc2c(cc1OC)C1C(O)C(OC)C(Br)C3(Br)CCN(C2)C13", "note": "(stereo not given)", "TGI": "> 100 µM"}
{"smiles": "O=C1C=CC(=O)c2c(O)c(CO)c(CO)c(O)c21", "TGI": "3.03 µM"}
{"smiles": "O=S(=O)(O)c1ccc(N=Nc2ccc(N=Nc3c(O)ccc4cc(S(=O)(=O)O)ccc34)cc2)cc1", "TGI": "> 100 µM"}
{"smiles": "COC(=O)[C@H](Cc1ccccc1)NC(=O)[C@H](Cc1ccccc1)NC(=O)CN1C(=O)[C@@H]2C3C=CC(C3)[C@@H]2C1=O", "TGI": "31.1 µM and 31.7 µM"}
{"smiles": "CCN1CCN(c2cc(C)nc(N(CCCNc3ccnc4cc(Cl)ccc34)Cc3cccs3)n2)CC1", "GI50": 2.85, "TGI": "10.9 µM"}
{"smiles": "COC(=O)NC(Nc1ccc(Cl)cc1Cl)(C(F)(F)F)C(F)(F)F", "TGI": "> 100 µM"}
{"smiles": "O=C1c2ccccc2-c2c1c1ccccc1c(=O)n2-c1cccnc1", "TGI": "> 100 µM"}
{"smiles": "O=C(O)c1ccccc1C1CCCc2c1[nH]c1ccccc21", "note": "(stereo not given)", "TGI": "> 100 µM"}
{"smiles": "COc1c(OCCCN2CCOCC2)ccc2c3n(c(=NC(=O)c4cnc(N)nc4)nc12)CCN3", "TGI": "1.18 µM and 1.31 µM and 1.81 µM"}
{"smiles": "CCCCCCCCCCCCCCCCP(=O)(OC)OC", "TGI": "30.9 µM"}
{"smiles": "CCCCC/C=C\\C=C1\\C(=O)C=C[C@@H]1C/C=C\\CCCC(=O)O", "TGI": "14.6 µM"}
{"smiles": "COc1cc(C(=O)/C=C/c2c(-c3cccs3)nc3sc(C)cn23)cc(OC)c1OC", "GI50": 6.72, "TGI": "> 100 µM"}
{"smiles": "C=CCN(C(=O)OC(C)(C)C)C1=CC2C(C)=CN(S(=O)(=O)c3ccccc3)C2C(OCc2ccccc2)=C1", "note": "(stereo not given)", "TGI": "> 100 µM"}
{"smiles": "CC#Cc1nc2ccccc2c(=O)[nH]1", "GI50": 5.55, "TGI": "24.1 µM"}
{"smiles": "CC(C)(Cl)C(Cl)CC/C(CBr)=C(\\Cl)CCl", "note": "(stereo not given)", "TGI": "29.4 µM"}
{"smiles": "CCOC(=O)c1cc(NC(=O)c2cc(NC(=O)c3cc(NC(=O)c4c(-c5ccccc5)noc4C)cn3C)cn2C)cn1C", "GI50": "> 100", "TGI": "> 100 µM"}
{"smiles": "CC/C(CC(=O)CCC(=O)Nc1c(C)cccc1C)=N\\NC(=O)NN", "TGI": "> 100 µM"}
{"smiles": "COC(O)C12OC3CO[Si](C(C)C)(C(C)C)O[Si](C(C)C)(C(C)C)OC3C1Oc1nc(=O)ccn12", "note": "(stereo not given)", "TGI": "30.4 µM"}
{"smiles": "CC(=O)Nc1ccc(-c2csc(Nc3ccc(-c4csc(-c5ccccc5)n4)cc3)n2)cc1", "GI50": 2.16, "TGI": "18.3 µM"}
{"smiles": "CCOC(=O)C=C1CCC2(CC1)OCCO2", "TGI": "> 100 µM"}
{"smiles": "CC1CC2=C(C(=O)O1)C(c1ccccc1)Nc1ccccc1N2", "note": "(stereo not given)", "TGI": "> 100 µM"}
{"smiles": "C/C(CC(=O)Nc1ccccc1[N+](=O)[O-])=N\\NC(N)=O", "TGI": "> 100 µM"}
{"smiles": "C/C(=N\\NC(=S)NCCNC(=S)N/N=C(\\C)c1ccccn1)c1ccccn1", "TGI": "45 µM"}
{"smiles": "CN1CC[C@]2(C)c3c(O)cccc3CC3CCCC1C32C", "note": "(stereo not given in full)", "TGI": "> 100 µM"}
{"smiles": "NC(=O)NN=C1C[C@H]2CCCC[C@H]2C1", "TGI": "> 100 µM"}
{"smiles": "CC1=C(C(=O)CC(=O)C(=O)Nc2cccc(Cl)c2C)Sc2ccccc2N1", "TGI": "> 100 µM"}
{"smiles": "CC1(C)OCC(C2CCC3(C)C4=CCC5C(C)(C)C(O)CCC5(C)C4CCC23C)CC(O)C1O", "note": "(stereo not given)", "TGI": "31.2 µM"}
{"smiles": "Cc1cc2c(c(C(N)=O)c1C)-c1cccc(Cl)c1C2=O", "TGI": "> 100 µM"}
{"smiles": "CC(=O)Nc1cc(C(=O)Nc2cc(C(=O)Nc3cc(C(=O)Nc4cc(C(=O)Nc5cc(C(=O)NCCC(=O)NCCCN(C)C)n(C)c5)n(C)c4)n(C)c3)n(C)c2)n(C)c1", "TGI": "> 100 µM"}
